Measured values reported in PubChem BioAssay AID1645887 (National Center for Advancing Translational Sciences (NCATS), 2021).
Several values for one entry are separate records, joined by “and”; a condition that tells them apart may be missing. Equal values may be shown once. Out of some 16,000 compounds screened, about 40 (0.2%) were called active. Not shown: some 1% with an inconclusive outcome. Calls follow the shape of the dose curve; as a rule, active = well fitted activation curve with a large enough effect; inconclusive = small, poorly fitted or top-dose-only effect, or another doubt; inactive = no such curve, though single readings can be large or run the other way. The list shows a part of the results.

Target: Rap guanine nucleotide exchange factor 4 (Homo sapiens) (UniProt Q8WZA2)
Sequence of UniProt Q8WZA2 (Q8WZA2 whole entry, looked up): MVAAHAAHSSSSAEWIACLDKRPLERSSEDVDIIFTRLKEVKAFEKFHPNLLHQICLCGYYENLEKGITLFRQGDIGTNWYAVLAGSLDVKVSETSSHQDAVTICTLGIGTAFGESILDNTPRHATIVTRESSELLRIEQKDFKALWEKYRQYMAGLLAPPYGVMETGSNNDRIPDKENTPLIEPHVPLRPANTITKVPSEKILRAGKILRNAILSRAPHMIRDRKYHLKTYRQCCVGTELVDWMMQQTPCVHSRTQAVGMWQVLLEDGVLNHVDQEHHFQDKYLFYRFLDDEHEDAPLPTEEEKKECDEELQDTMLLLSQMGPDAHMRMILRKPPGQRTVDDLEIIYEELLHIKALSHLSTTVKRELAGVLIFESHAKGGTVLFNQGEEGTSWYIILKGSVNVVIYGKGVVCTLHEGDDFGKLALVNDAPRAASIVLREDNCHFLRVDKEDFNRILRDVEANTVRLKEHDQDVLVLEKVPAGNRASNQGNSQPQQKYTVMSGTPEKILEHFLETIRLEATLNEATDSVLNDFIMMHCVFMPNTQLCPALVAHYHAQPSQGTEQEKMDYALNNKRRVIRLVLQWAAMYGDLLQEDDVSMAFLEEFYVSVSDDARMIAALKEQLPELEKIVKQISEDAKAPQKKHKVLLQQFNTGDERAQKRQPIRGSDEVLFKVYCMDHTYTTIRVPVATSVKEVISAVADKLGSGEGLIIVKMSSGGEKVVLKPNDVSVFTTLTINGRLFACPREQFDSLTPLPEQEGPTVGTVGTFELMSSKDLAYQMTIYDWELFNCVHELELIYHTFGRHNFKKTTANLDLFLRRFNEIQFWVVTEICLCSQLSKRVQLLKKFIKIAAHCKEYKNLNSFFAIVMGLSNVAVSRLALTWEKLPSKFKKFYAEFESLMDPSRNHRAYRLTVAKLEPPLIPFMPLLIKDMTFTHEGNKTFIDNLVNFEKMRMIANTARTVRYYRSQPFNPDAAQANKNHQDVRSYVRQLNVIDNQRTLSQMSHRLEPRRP
Assay: Validation qHTS for agonist of cAMP-regulated guanine nucleotide exchange factor 4 (EPAC2);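 also: exchange makes BODIPY-GDP fluorescence drop when released from Rap1B; series mostly up to about 150 µM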
Conditions: EPAC2 Rap1B BODIPY-GDP exchange, fluorescence; activation: stronger effect = higher value
Outline: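 Signal normalized against 6.5 mM cAMP as agonist control. Mix of EPAC2 (100 nM), RAP1B-BODIPY-GDP (250 nM) and GDP (50 uM) was read kinetically at 480/540 nm, every 5 min over 30 min, after 5 min room-temperature incubation with compound.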
% is scaled to controls: 0 for no effect and ±100 for the full control effect.

Q: CCC1(CC)C(=O)NC(=O)NC1=O was tested. Which activation did it give?
A: inactive: -12.5%

Q: With C[N+]1(C)C2CCC1CC(OC(=O)c1c[nH]c3ccccc13)C2 (stereo not given) as the compound, how does the activation read?
A: inactive: -46.9%

Q: For N#C/C(=C\c1ccc(O)c(O)c1)C(N)=S, which activation is on record?
A: inactive: -14.9% and inactive: -15.3%

Q: Which activation does the source give for CC(Cc1cccc(C(F)(F)F)c1)NCCCc1ccccc1 (stereo not given) here?
A: inactive: -0.603%

Q: c1ccc2sc(C3(N4CCCCC4)CCCCC3)cc2c1 was tested. Which activation did it give?
A: inactive: -41.1% and inactive: -2.98% and inactive: -35.5%

Q: Which activation does the source give for COc1ccc(CCN)cc1 here?
A: inactive: -5.77%

Q: Which activation does the source give for C(=C\c1ccccc1)/CN1CCN(CCOC(c2ccccc2)c2ccccc2)CC1 here?
A: inactive: -12.3%

Q: CC(O)C(C)OC(=O)[C@@H]1C[C@@H]2c3cccc4c3c(cn4C(C)C)C[C@H]2N(C)C1 (stereo not given in full) was tested. Which activation did it give?
A: inactive: 0.0236%

Q: How did the activation turn out when COc1ccc(NC(=O)N2CC3(CCN(C(=O)Oc4ccccc4)CC3)C2)cc1 was run?
A: inactive: -3.18%

Q: CCc1cc2c(s1)-n1c(C)nnc1CN=C2c1ccccc1Cl was tested. Which activation did it give?
A: inactive: -29.9%

Q: Which activation does the source give for c1cc(CN2CCC3(CCNCC3)CC2)ccn1 here?
A: inactive: -18.6%

Q: For O=C(NC(=O)c1c(F)cccc1F)Nc1ccc(Cl)c(Oc2ncc(C(F)(F)F)cc2Cl)c1, which activation is on record?
A: inactive: -4.99%

Q: Which activation does the source give for CC(=O)OC1C2CCC3C1(CC(O)[C@@]1(O)[C@@H](CC(O)C1(C)C)[C@]3(C)O)C[C@@]2(C)O (stereo not given in full) here?
A: inactive: 3.7%

Q: With Ic1cncc(OC[C@@H]2CCN2)c1 as the compound, how does the activation read?
A: inactive: -15.8%

Q: Which activation does the source give for COc1ccc(OC)c(C(O)C(C)N)c1 (stereo not given) here?
A: inactive: -24.4%

Q: Which activation does the source give for N#CC(C#N)=NNc1ccc(OC(F)(F)F)cc1 here?
A: inactive: -54.7%

Q: COC(=O)C1=CO[C@@H](C)[C@@H]2CN3CC[C@]4(C(=O)Nc5c4ccc(OC)c5OC)[C@H]3C[C@H]12 was tested. Which activation did it give?
A: inactive: -7.63%

Q: How did the activation turn out when CCC(=O)O[C@H]1CC[C@H]2[C@@H]3CCC4=CC(=O)CC[C@]4(C)[C@H]3CC[C@]12C was run?
A: inactive: -7.22%

Q: Which activation does the source give for COc1cccc([C@@]2(O)CCCC[C@@H]2CN(C)C)c1 here?
A: inactive: -8.31%

Q: For COC(=O)[C@@H]1[C@H]2CC[C@@H](C[C@H]1OC(=O)c1ccccc1)N2C, which activation is on record?
A: inactive: 2.65%

Q: Which activation does the source give for C[C@]12CCC3C(CC[C@H]4C[C@H](O)CC[C@]34C)C1CC[C@@H]2C(=O)CO (stereo not given in full) here?
A: inactive: -13.3%

Q: CNC(=O)N(C)c1nnc(C(C)(C)C)s1 was tested. Which activation did it give?
A: inactive: -8.74%

Q: CO[C@]12CC[C@@]3(C[C@@H]1[C@](C)(O)C(C)(C)C)[C@@H]1Cc4ccc(O)c5c4[C@@]3(CCN1CC1CC1)[C@H]2O5 was tested. Which activation did it give?
A: inactive: -32.4%

Q: How did the activation turn out when CN1CC[C@@]2(CCCN(C(=O)c3ccco3)C2)C1 was run?
A: inactive: -14.5%

Q: For C=C1C([C@@H](O)C[C@H](C)C2O[C@@]3(CCCCO3)CC[C@H]2C)OC2CC[C@@]3(CC[C@@H](/C=C/[C@@H](C)C4CC(C)=C[C@]5(O4)O[C@H](C[C@@](C)(O)C(=O)O)CCC5O)O3)OC2[C@@H]1O (stereo not given in full), which activation is on record?
A: inactive: 0.962%

Q: C=CCN1C[C@H](C)N([C@@H](c2ccccc2)c2ccc(C(=O)N(CC)CC)cc2)C[C@H]1C was tested. Which activation did it give?
A: inactive: -4.87%

Q: How did the activation turn out when Oc1ccc2c3c1O[C@H]1c4[nH]c5c(c4C[C@@]4(O)[C@@H](C2)N(CC2CC2)CC[C@]314)C[C@]1(O)[C@H]2Cc3ccc(O)c4c3[C@@]1(CCN2CC1CC1)[C@@H]5O4 was run?
A: inactive: -19.7%

Q: With c1csc(CN2CC[C@@]3(CCCNC3)C2)n1 as the compound, how does the activation read?
A: inactive: -23.9%

Q: C[C@@H]1CN(C2CCC(C#N)(c3ccc(F)cc3)CC2)CC[C@]1(C(=O)O)c1ccccc1 (stereo not given in full) was tested. Which activation did it give?
A: inactive: -12.1%

Q: With Clc1ccc(COC(Cn2ccnc2)c2ccc(Cl)cc2Cl)c(Cl)c1 (stereo not given) as the compound, how does the activation read?
A: inactive: 7.21% and inactive: -10.1%

Q: CN1C2CCC1CC(OC(=O)C1CCC(C(=O)OC3CC4CCC(C3)N4C)(c3ccccc3)c3ccccc31)C2 (stereo not given) was tested. Which activation did it give?
A: inactive: -1.71%

Q: Which activation does the source give for NCC(N)C(=O)c1ccccc1 (stereo not given) here?
A: inactive: -16.2%

Q: Which activation does the source give for CC(=O)OC1CC[C@@]2(C)C3CC[C@]4(C)C(=O)CCC4C3CC[C@H]2C1 (stereo not given in full) here?
A: inactive: -25.6%

Q: How did the activation turn out when c1ccc2sc(SNC3CCCCC3)nc2c1 was run?
A: inactive: 0.0022%

Q: How did the activation turn out when O=C(Nc1cccc(F)c1)N1CC[C@@]2(CCCN(C(=O)Oc3ccccc3)C2)C1 was run?
A: inactive: -17.4%

Q: For CC(C)(C)[C@]1(O)C[C@@H]2OC(=O)C[C@@]23C(=O)O[C@@H]2OC(=O)[C@H](O)[C@]213, which activation is on record?
A: inactive: -6.82%

Q: CC(C)(C)c1cc(C=C(C#N)C#N)cc(C(C)(C)C)c1O was tested. Which activation did it give?
A: inactive: -29.1% and inactive: -5.45% and inactive: -31.1%

Q: With CC(C)[C@@H]1CN[C@H](C(=O)O)[C@@H]1CC(=O)O as the compound, how does the activation read?
A: inactive: 6.03%

Q: How did the activation turn out when O=[N+]([O-])c1ccc(O[C@@H]2O[C@H](CO)[C@@H](O)[C@H](O)[C@H]2F)c([N+](=O)[O-])c1 was run?
A: inactive: -12.3%

Q: Which activation does the source give for O=C(O)c1nn(Cc2ccc(Cl)cc2Cl)c2ccccc12 here?
A: inactive: -4.99% and inactive: -3.12% and inactive: -54.4%

Q: For CNCCc1cnc[nH]1, which activation is on record?
A: inactive: -20.5% and inactive: 11.6%

Q: O=C(O)C(Cl)Cl was tested. Which activation did it give?
A: inactive: -7.53% and inactive: -3.06%

Q: With O=C(NC(=O)c1c(F)cccc1F)Nc1ccc(Cl)cc1 as the compound, how does the activation read?
A: inactive: -14.2%

Q: C[C@@H]1C[C@@H]([C@H](O)CC2CC(=O)NC(=O)C2)C(=O)[C@@H](C)C1 was tested. Which activation did it give?
A: inactive: -6.15% and inactive: 1.58%

Q: How did the activation turn out when CN1C(=O)COc2c(C(=O)N[C@@H]3CN4CCC3CC4)cc(Cl)cc21 was run?
A: inactive: -14.6%

Q: With COC[C@H]([C@@H](O)[C@@H](O)C(=O)NCC[C@@H](C)c1nc(/C=C/C[C@H]2OC3(C[C@H](O)[C@H]2C)OC([C@@H](C[C@@H](O)[C@@H](C)[C@@H](O)[C@@H](C)/C=C(C)/C(C)=C/C=C/C(C)=C\C#N)OC)[C@@H](OP(=O)(O)O)C3(C)C)co1)N(C)C (stereo not given in full) as the compound, how does the activation read?
A: inactive: -11.1%

Q: Which activation does the source give for N#CC(C#N)=Cc1cc(O)c(O)c([N+](=O)[O-])c1 here?
A: inactive: -7.41%

Q: Which activation does the source give for C[C@H](N)C(=O)c1ccccc1 here?
A: inactive: 12.1% and inactive: -4.64%

Q: For CCOC(=O)c1ncn2c1[C@@H]1CCCN1C(=O)c1cc(OC)ccc1-2, which activation is on record?
A: inactive: -25.1%

Q: For NC(N)=Nc1ccc2[nH]c3c(c2c1)C[C@@]1(O)[C@H]2Cc4ccc(O)c5c4[C@@]1(CCN2CC1CC1)[C@H]3O5, which activation is on record?
A: inactive: -53.2%

Q: How did the activation turn out when c1ccc(CN2CC[C@@]3(CCCNC3)C2)cc1 was run?
A: inactive: -1.66%

Q: With c1cncc(C2CCCN2)c1 (stereo not given) as the compound, how does the activation read?
A: inactive: 8.74%

Q: How did the activation turn out when COc1cc([N+](=O)[O-])cc([N+](=O)[O-])c1N was run?
A: inactive: -23%

Q: For CCC1(C2=NCCN2)Cc2ccccc2O1 (stereo not given), which activation is on record?
A: inactive: 6.18% and inactive: -22.9% and inactive: -12.9%

Q: How did the activation turn out when C[C@H]1O[C@@H](O[C@H]2[C@@H](O)C[C@H](O[C@H]3[C@@H](O)C[C@H](O[C@H]4CC[C@]5(C)C6CC[C@]7(C)[C@@H](C8=CC(=O)OC8)CC[C@]7(O)C6CC[C@@H]5C4)O[C@@H]3C)O[C@@H]2C)C[C@H](O)[C@@H]1O (stereo not given in full) was run?
A: inactive: -0.872%

Q: COc1cc(C2c3cc4c(c(O)c3CC3COC(=O)C32)OCO4)cc(OC)c1OC (stereo not given) was tested. Which activation did it give?
A: inactive: -20.6%

Q: How did the activation turn out when CC[C@@H](CO)NC(=O)[C@@H]1C=C2c3cccc4[nH]cc(c34)C[C@H]2N(C)C1 was run?
A: inactive: -8.79% and inactive: -74.8%

Q: CCCCOC(=O)c1ccccc1C(=O)OCCCC was tested. Which activation did it give?
A: inactive: -27.8%

Q: Which activation does the source give for C/C(=C\C=C/[C@@H](C)C(=O)O)[C@H]1CN[C@H](C(=O)O)[C@@H]1CC(=O)O here?
A: inactive: -0.871%

Q: For CCC1(CCC(C)C)C(=O)NC(=O)NC1=O, which activation is on record?
A: inactive: -0.269%

Q: For Cn1sc(Cl)cc1=O, which activation is on record?
A: inactive: 3.99%

Q: With C[C@H]1O[C@@H](O[C@H]2[C@@H](O)C[C@H](O[C@H]3[C@@H](O)C[C@H](O[C@H]4CC[C@@]5(C)[C@H](CC[C@@H]6[C@@H]5CC[C@]5(C)[C@@H](C7=CC(=O)OC7)CC[C@]65O)C4)O[C@@H]3C)O[C@@H]2C)C[C@H](O)[C@@H]1O as the compound, how does the activation read?
A: inactive: -6.24%

Q: Which activation does the source give for CN1CC[C@@H]2CN3CCc4cccc(c43)[C@@H]2C1 here?
A: inactive: 17.6%

Q: Which activation does the source give for COc1ccc2c3c1O[C@H]1[C@@H](O)C=C[C@H]4[C@@H](C2)NCC[C@@]341 here?
A: inactive: -8.67% and inactive: -9.71%

Q: C[N+]1(C)CCc2cc3c(cc2[C@H]1[C@@H]1OC(=O)c2c1ccc1c2OCO1)OCO3 was tested. Which activation did it give?
A: inactive: 1.77%

Q: With Cc1nnc2n1-c1ccc(Cl)cc1C(c1ccccc1)=NC2 as the compound, how does the activation read?
A: inactive: -2.57%

Q: How did the activation turn out when CCC/C=C/C=C/C(=O)O[C@H]1/C(=C/C(=O)OC)C[C@H]2C[C@H]([C@@H](C)O)OC(=O)C[C@H](O)C[C@@H]3C[C@H](OC(C)=O)C(C)(C)[C@](O)(C[C@@H]4C/C(=C/C(=O)OC)C[C@H](/C=C/C(C)(C)[C@]1(O)O2)O4)O3 was run?
A: inactive: -44.1%

Q: With O=C(CN1CCCC1)c1ccccc1 as the compound, how does the activation read?
A: inactive: -13%

Q: With O=C(O)[C@@H]1CSC(c2cccnc2)N1 (stereo not given in full) as the compound, how does the activation read?
A: inactive: -5.34%

Q: With C=CCc1cc(OC)c2c(c1OC)OCO2 as the compound, how does the activation read?
A: inactive: -22.8%

Q: COc1ccc2c(c1O)-c1cccc3c1[C@@H](C2)N(C)CC3 was tested. Which activation did it give?
A: inactive: -26.1%

Q: With NC(CCP(=O)(O)O)C(=O)O (stereo not given) as the compound, how does the activation read?
A: inactive: 3.47% and inactive: -14.9%

Q: For c1ccc(CN2CCCC3(CCNCC3)C2)cc1, which activation is on record?
A: inactive: -19.1%

Q: Which activation does the source give for COc1cccc(-c2ccc(O)c(CNC3CN4CCC3CC4)c2)n1 (stereo not given) here?
A: inactive: -1.38%

Q: With COc1cc(C(O)CN)ccc1O (stereo not given) as the compound, how does the activation read?
A: inactive: -29.8%
